Laboratory results as given in PubChem BioAssay AID686979 (National Center for Advancing Translational Sciences (NCATS), 2013).
Hit rate of the full screen: of about 420,000 compounds, about 50,000 (12%) were called active. Inconclusive means that the source gave no clear call. Such entries were picked first, then a sample of the others. Calls come from the whole dose curve; as a rule, active = well fitted inhibition curve with a large enough effect; inconclusive = small, poorly fitted or top-dose-only effect; inactive = flat fitted curve, though single readings scatter. No potency is given beside an inconclusive call; the fits are too rough.

test: qHTS for Inhibitors of human tyrosyl-DNA phosphodiesterase 1 (TDP1): qHTS in cells in presence of CPT; settings: chicken DT40 Tdp1-/-;hTDP1 cells + 20 nM CPT, ATP luminescence, 48 h; activity change, negative = growth inhibition: at 46.2 µM (top of the series); note: nearly all actives have a fitted effect of over 55% in size
Method in brief: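 Cell growth measured by CellTiter-Glo luminescence after a minimum 48 h, 37 C compound exposure with 20 nM CPT in Tdp1-knockout DT40 cells stably expressing hTDP1, seeded 400/well; qHTS titration format.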
% is set by controls: 0 for no effect and ±100 for the full control effect; potency is the fitted concentration of half-maximal effect; tags give direction and shape of the fitted curve.

| Structure (SMILES) | Potency | activity change, negative = growth inhibition |
| --- | --- | --- |
| O=S(=O)(N1CCCCCC1)N1CCN(S(=O)(=O)N2CCCCC2)CC1 | inactive |  |
| O=[N+]([O-])c1ccccc1NC(=S)N/N=C/c1ccc(O)c(O)c1 | inconclusive [inhibitor, single point] |  |
| O=C(CN1c2ccccc2Sc2ccccc21)N/N=C/c1ccc(Cl)cc1Cl | inconclusive [inhibitor, single point] |  |
| O=c1cc(CSc2nc(NCc3ccccc3)c3ccccc3n2)nc2ccc(Cl)cn12 | active: 16.4 µM |  |
| CCOC(=O)N1CCN(C(=O)c2ccc3c(c2)NC(=O)/C(=C/c2ccccc2)S3)CC1 | inconclusive [inhibitor, single point] |  |
| CCOc1ccccc1N1CCN(C(=O)c2csc(C)c2CC)CC1 | inconclusive [inhibitor, single point] |  |
| COc1ccc(Cl)cc1NC(=O)Cn1cc(C(=O)c2ccc(C)cc2)c(=O)c2ccc(C)nc21 | inconclusive [inhibitor, single point] |  |
| COc1ccc(O)c(C(=O)c2cc(C#N)c(=O)n(-c3ccc(Cl)cc3)c2)c1 |  | inconclusive: -31.8% [inhibitor] |
| C=C(c1ccccc1Cl)[n+]1ccccc1 | active: 11.6 µM |  |
| O=C1C=C(O)c2cccc(O)c2C1=O | active: 25.9 µM |  |
| CC(=O)c1cccc(OCc2cc(C(=O)N(C)C(C)c3ccccn3)no2)c1 (stereo unspecified) | inconclusive [inhibitor, single point] |  |
| COc1ccc(CCNC(=O)c2c(O)nc3ccccn3c2=O)cc1 | inconclusive [inhibitor, single point] |  |
| Cc1ccccc1CN1C(=O)C2(c3ccccc31)N(c1ccccc1)C(=O)CS2(=O)=O (stereo unspecified) | inactive |  |
| O=C(CSc1nc(O)cc(=O)n1-c1ccccc1)Nc1ccc(Br)cn1 | inactive |  |
| COc1ccc(CN2CCN(C(=O)c3ccccc3C(=O)c3ccccc3)CC2)cc1OC | inconclusive [inhibitor, single point] |  |
| Cc1cc(NC(=O)CS(=O)(=O)c2cn(Cc3ccc(F)cc3)c3ccccc23)no1 | active: 20.6 µM |  |
| O=C(NC(c1ccc(Cl)cc1)c1ccccn1)C1CCN(CCOc2ccc(Cl)cc2Cl)CC1 (stereo unspecified) | inconclusive [inhibitor, single point] |  |
| Cc1cc(C)c(S(=O)(=O)N2CCN(C(=O)N3CCCCC3)CC2)c(C)c1 | inconclusive [inhibitor, partial curve] |  |
| Cc1c(/C=N/NC(=O)c2sc3ccccc3c2Cl)cnn1C | inconclusive [inhibitor, partial curve] |  |
| CNC(=O)COc1coc(CN2CCN(c3ccc(F)cc3)CC2)cc1=O | inactive |  |
| O=C(NCC1CCN(c2ccc(S(=O)(=O)N3CCOCC3)cc2)CC1)c1cccc(Cl)c1 | inconclusive [inhibitor, single point] |  |
| COc1cc2c(cc1OC)C(c1ccccc1C)CC(=O)N2 (stereo unspecified) | inactive |  |
| C=Cc1ccc(Cn2c(C)c(CNCCc3ccccc3C)c(C(=O)O)c2C)cc1 | inconclusive [inhibitor, single point] |  |
| O=C(NCC1CCCO1)C1CCCN(Cc2cnn(-c3ccccc3)c2-n2cccc2)C1 (stereo unspecified) | inactive |  |

| Structure (SMILES) | Potency | activity change, negative = growth inhibition |
| --- | --- | --- |
| O=C(COc1ccc(Cl)cc1)Nc1ccc(C(=O)OCc2cc(=O)n3ccsc3n2)cc1 | active: 14.6 µM |  |
| O=C(N/N=C/c1c[nH]c2ccccc12)c1ccc2c(c1)OCCO2 | inconclusive [inhibitor, single point] |  |
| CCOC(=O)/C(C#N)=C\c1c(OCC)n(CC)c2ccccc12 | inconclusive [inhibitor, single point] |  |
| Cn1nc(C(F)(F)F)c(C(=O)Nc2ccc(F)cc2F)c1Oc1cccc(Cl)c1 |  | inconclusive: -33% [inhibitor] |
| O=C(CCC1CCCCC1)Nc1cc(C(F)(F)F)ccc1N1CCOCC1 | inconclusive [inhibitor, partial curve, poor fit] |  |
| O=C(c1cc2cc(Br)ccc2o1)N1CCCC1 | inconclusive [inhibitor, single point] |  |
| CCCCNC(=O)C[C@@H]1C[C@@]2(C(=O)OC)CCCCC=C2N(Cc2ccc(Cl)cc2Cl)C1=O | inconclusive [inhibitor, single point] |  |
| O=C(Nc1nc(-c2ccccc2)cs1)C1CCCCN1S(=O)(=O)c1ccccc1 (stereo unspecified) | active: 25.9 µM |  |
| CCS(=O)(=O)n1nc(-c2ccco2)nc1SC | inconclusive [inhibitor, single point] |  |
| COc1ccc2oc(=O)c(C(=O)Nc3ccc(C(=O)O)cc3)cc2c1 | inactive |  |
| Cc1ccc(NC(=O)CCSc2nc(-c3ccco3)cc(C(F)(F)F)n2)cc1F | inconclusive [inhibitor, single point] |  |
| Cc1ccn2c(=O)c(C(=O)NCCCN3CCCCC3C)c(O)nc2c1 (stereo unspecified) | inactive |  |
| COc1ccc(Oc2ncc3nc(C)c(=O)n(C[C@H]4CCCO4)c3n2)cc1 | inconclusive [inhibitor, single point] |  |
| CS(=O)(=O)N(Cc1nc(-c2ccc(F)cc2)no1)c1ccccc1Cl | active: 18.4 µM |  |
| COc1ccc(OC)c(-c2csc(NC(=O)c3ccc(OCC4CCCO4)cc3)n2)c1 (stereo unspecified) | inconclusive [inhibitor, single point] |  |
| COc1ccc(O)c(/C=N/NC(=O)c2cccc(N3CCCC3=O)c2)c1 | active: 5.17 µM |  |
| Cc1ccc(NC(=O)c2c(C)nc(Nc3nc4ccccc4o3)nc2C)cc1 | inactive |  |
| Nc1cc(=O)[nH]c2ncnn12 | inactive |  |
| CN(Cc1ccccc1)C(=O)CCC1CCN(C(=O)CCC(F)(F)F)CC1 | inconclusive [inhibitor, single point] |  |
| CCc1ccc(NC(=O)N2CCN(c3ccc(F)cc3)CC2)cc1 | inconclusive [inhibitor, partial curve] |  |
| Clc1ccc(CSc2nncn2-c2ccccn2)cc1 | inconclusive [inhibitor, full curve] |  |
| O=C1/C(=C\Nc2ccc(Cl)cc2)CCN1c1ncccn1 | inconclusive [inhibitor, single point] |  |
| CN1CCSc2ccc(C(=O)NCc3cccc(F)c3)cc21 | inconclusive [inhibitor, single point] |  |
| CCOc1ccccc1NC(=O)COC(=O)c1cccc(-c2ccc(OC(C)=O)cc2)c1 | inconclusive [inhibitor, single point] |  |

| Structure (SMILES) | Potency | activity change, negative = growth inhibition |
| --- | --- | --- |
| C/C(CC(=O)Nc1cc(C)ccn1)=N\NC(=O)c1ccc(C)cc1 | inconclusive [inhibitor, single point] |  |
| CCc1noc(C)c1C(=O)N1CCN(S(=O)(=O)c2c(C)cc(C)cc2C)CC1 | inconclusive [inhibitor, single point] |  |
| COc1ccccc1C(=O)C1CCCN(C(=O)c2ccc(C(C)=O)s2)C1 (stereo unspecified) | inactive |  |
| COCCn1c(C)cc(C(=O)CSc2nnc3ccccn23)c1C | inactive |  |
| COc1ccc(C)cc1Nc1n[n+](-c2ccccc2)c(-c2c(Cl)cccc2Cl)s1 | active: 20.6 µM |  |
| CC(C)C(NC(=O)C(c1ccccc1)c1ccccc1)c1nc2ccccc2[nH]1 (stereo unspecified) | inconclusive [inhibitor, single point] |  |
| Cc1cnc(C(=O)OCC(=O)N2CCc3ccccc32)cn1 | inconclusive [inhibitor, single point] |  |
| COCC1CCCCN1C(=O)c1ccc2oc(CCc3ccccc3)nc2c1 (stereo unspecified) | inconclusive [inhibitor, partial curve, poor fit] |  |
| O=C1[C@@H]2Cc3c([nH]c4ccccc34)C(c3ccccc3)N2C(=O)CN1C1CC1 (stereo partly specified) | inconclusive [inhibitor, single point] |  |
| O=C(Nc1ccc2c(c1)OCO2)c1cccc2c1C(=O)N(Cc1cccnc1)C2 | inconclusive [inhibitor, single point] |  |
| CCCCC(c1nnnn1CS(=O)(=O)c1ccc(C)cc1)N1CCC(C(N)=O)CC1 (stereo unspecified) | inactive |  |
| C=CCc1ccc(OCCOCCNCCCC)c(OC)c1 | inconclusive [inhibitor, single point] |  |
| CCNc1nc(SCC(=O)Nc2ccc(Cl)c(Cl)c2)nc(N(C)C)n1 | inconclusive [inhibitor, single point] |  |
| CN(Cc1cn(C)nc1-c1cccc(Cl)c1)CC1CCCCO1 (stereo unspecified) | inactive |  |
| Clc1cccc(CN2CCCCCC2)c1 | inactive |  |
| O=C(Nc1ccc(Oc2ccccc2)cc1)c1ccco1 | inconclusive [inhibitor, single point] |  |
| C1=Cc2ccccc2/C1=C(\Cc1ccncc1)Oc1ccncc1 | active: 11.2 µM |  |
| FC(F)(F)c1ccc(CN2C[C@@H]3C(c4ccc(Cl)nc4)C4(c5cccnc5)CC3(C4)[C@H]2c2ccccc2)cc1 (stereo partly specified) | inconclusive [inhibitor, single point] |  |
| CC(=O)Nc1ccccc1NC(=O)CN(C)S(=O)(=O)c1ccc(C)cc1 | inactive |  |
| CC(C)C(NC(=O)c1ccc(C(C)(C)C)cc1)C(=O)NCc1ccccn1 (stereo unspecified) | active: 9.2 µM |  |
| CCOC(=O)c1c(C)[nH]c(C)c1C(=O)COC(=O)c1ccc([N+](=O)[O-])s1 | inconclusive [inhibitor, single point] |  |
| Cc1c(Cl)cccc1NC(=O)c1ncoc1-c1ccco1 | inconclusive [inhibitor, single point] |  |
| Cc1ccc(NC(=O)C(C)n2nnc3sc4c(c3c2=O)CCCC4)cc1Cl (stereo unspecified) | inconclusive [inhibitor, single point] |  |
